# Results as given in paper PMC4336329 (PLoS ONE, 2015).
# Among all 310,000 compounds or so, about 14,000 (4.5%) showed an effect of 50% or more. Effects have a minus sign here. This is one part of the list.
# Target: human ether-à-go-go-related gene (hERG) potassium channel (human, UniProt Q12809)
# Experiment: primary screen, population patch clamp on CHO cells stably expressing hERG
# 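Further: peak tail current of the secondary pulse compared with the same well before compound.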
# Sequence of human ether-à-go-go-related gene (hERG) potassium channel (Q12809 whole entry, looked up): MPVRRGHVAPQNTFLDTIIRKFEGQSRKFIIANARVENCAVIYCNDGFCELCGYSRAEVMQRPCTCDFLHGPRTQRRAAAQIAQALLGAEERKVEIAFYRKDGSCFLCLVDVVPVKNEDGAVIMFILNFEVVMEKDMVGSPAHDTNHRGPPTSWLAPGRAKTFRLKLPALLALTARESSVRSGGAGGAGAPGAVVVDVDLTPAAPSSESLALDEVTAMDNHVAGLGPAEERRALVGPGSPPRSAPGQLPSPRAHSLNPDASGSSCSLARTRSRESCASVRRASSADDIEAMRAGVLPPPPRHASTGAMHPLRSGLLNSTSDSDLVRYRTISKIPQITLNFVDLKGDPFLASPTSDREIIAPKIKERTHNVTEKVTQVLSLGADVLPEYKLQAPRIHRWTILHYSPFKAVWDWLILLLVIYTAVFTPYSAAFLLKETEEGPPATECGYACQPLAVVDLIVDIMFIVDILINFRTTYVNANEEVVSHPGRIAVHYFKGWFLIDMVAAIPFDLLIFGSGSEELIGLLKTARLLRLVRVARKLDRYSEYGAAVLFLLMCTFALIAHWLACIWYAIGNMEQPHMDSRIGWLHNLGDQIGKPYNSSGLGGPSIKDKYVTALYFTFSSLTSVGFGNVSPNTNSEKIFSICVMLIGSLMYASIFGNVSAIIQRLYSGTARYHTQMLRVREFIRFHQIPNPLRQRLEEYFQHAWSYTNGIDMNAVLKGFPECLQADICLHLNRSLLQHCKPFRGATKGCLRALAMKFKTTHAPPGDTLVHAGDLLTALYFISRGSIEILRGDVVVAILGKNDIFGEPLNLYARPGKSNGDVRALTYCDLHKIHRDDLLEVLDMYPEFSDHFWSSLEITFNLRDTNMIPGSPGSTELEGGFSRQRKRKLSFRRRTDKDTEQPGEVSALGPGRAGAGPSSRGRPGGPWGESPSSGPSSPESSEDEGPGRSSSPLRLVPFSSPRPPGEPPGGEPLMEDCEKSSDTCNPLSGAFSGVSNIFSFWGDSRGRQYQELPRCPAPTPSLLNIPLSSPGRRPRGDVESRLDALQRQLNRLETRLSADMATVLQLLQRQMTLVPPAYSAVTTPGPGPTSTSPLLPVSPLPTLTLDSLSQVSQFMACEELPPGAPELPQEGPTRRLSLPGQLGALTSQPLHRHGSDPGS
row,Structure (SMILES),"hERG current change (%, negative = inhibition) at 10uM [%]"
1,Cc1ccc(N(CC(=O)N/N=C/c2ccco2)S(=O)(=O)c2ccccc2)cc1,-2.32
2,CCCCC(c1nnnn1Cc1ccco1)N1CCN(C(=O)c2ccco2)CC1.Cl (stereo not drawn),-51.8
3,O=[N+]([O-])c1ccc(N2CCN(S(=O)(=O)c3ccc(Cl)c(Cl)c3)CC2)cc1NCCN1CCOCC1,3.04
4,CCOc1ccccc1C(=O)N1CCN(C(c2ccccc2)c2ccccc2)CC1,0.314
5,Cc1cccc(Nc2nc(N)c([N+](=O)[O-])c(N3CCOCC3)n2)c1,-37.1
6,COC(CNC(=O)C1CCN(C(=O)c2cc3oc(C)cc3n2Cc2c(F)cccc2Cl)CC1)OC,2.22
7,Cc1ccc(OCCNC(=O)CN2C(=O)NC3(CCCC3)C2=O)cc1,-6.56
8,CC(=O)NCC(=O)O.CN(C)CCC1c2ccc(Cl)cc2CCc2cccnc21 (stereo not drawn),-11.7
9,COCCn1c(SCc2cnc(-c3ccccc3)s2)nnc1-c1ccncc1,-25.7
10,Cc1ccc(/C=C/C2=NN(Cc3ccccc3)C(=O)CC2)cc1,11.2
11,O=C(OCC(=O)N1CCN(c2ccccc2)CC1)c1ccccc1OC(F)F,-11.9
12,Cn1c(CNC(=O)c2ccc(Cl)cc2)nnc1SCC(=O)NC1=NCCS1,3.89
13,O=C(NNC(=O)c1cccnc1)Nc1ccccc1,1.09
14,CCOP(=O)(OCC)C(NC(=O)Nc1ccccc1)C(N)=O (stereo not drawn),9.93
15,FC(F)Sc1ccc(NC(=S)NC2CCC(NC(=S)Nc3ccc(SC(F)F)cc3)CC2)cc1 (stereo not drawn),4.68
16,COc1cccc(-n2c(=O)n(Cc3ccccc3)c(=O)c3[nH]cnc32)c1,-16.1
17,O=C(COC(=O)C12CC3CC(CC(C3)C1)C2)NCc1ccco1,-8.35
18,CCC1(c2ccccc2)NC(=O)N(CC(=O)N(C)CC(=O)Nc2cccc(F)c2)C1=O (stereo not drawn),15.5
19,CCN(C(=O)COC(=O)CCC(=O)c1ccccc1)c1c(N)n(Cc2ccccc2)c(=O)[nH]c1=O,15.6
20,Cc1nc(C)c(-c2ccc(SCC(=O)Nc3cccc(Cl)c3C)nn2)s1,-16.5
21,CCCN(CC(=O)Nc1ccccc1C)C(=O)COc1c(Cl)cccc1Cl,-15.8
22,Cn1c(=O)[nH]c(=O)c2c1nc(N)n2Cc1ccccc1,-0.871
23,C=CCN=c1scc(-c2ccc(F)cc2)n1/N=C/c1ccccn1,9.2

row,Structure (SMILES),"hERG current change (%, negative = inhibition) at 10uM [%]"
1,CC(=O)C1=C(O)CCCC1=NCc1nc2ccccc2[nH]1,13.9
2,COc1ccc(OC)c(NC(=O)C2CCCCC2C(=O)O)c1 (stereo not drawn),-34
3,O=C(COc1ccc2ccccc2c1)NNC(=O)Nc1ccc(F)cc1F,13.8
4,COc1cccc(NC(=O)CSc2nnc3cc(C)nc(N)n23)c1,7.55
5,COc1ccc(S(=O)(=O)N(C)CC(=O)NCCN2CCOCC2)cc1Cl,6.98
6,O=C(NC1CCc2ccccc21)c1cc(COc2ccc(F)cc2F)on1 (stereo not drawn),16.5
7,Cc1cccc(NC(=S)NCCN2CCOCC2)c1,5.41
8,COc1ccccc1NC(=O)N1CCN(c2ccc(F)cc2)CC1,-18.7
9,Cc1ccc(C(=O)NC(=S)Nc2ccccc2N2CCCC2)cc1[N+](=O)[O-],8.94
10,CCCc1cc(=O)oc2cc(C)cc(O)c12,-6.43
11,CN(C)c1nc2c(c(=O)n(C)c(=O)n2C)n1Cc1ccccc1,-7.47
12,Cc1cccn(Cc2c(F)cccc2Cl)c1=O,17.1
13,O=C1CC(c2ccccc2)CC(O)=C1C=NC1CCCCC1 (stereo not drawn),-10.2
14,COc1cc(NC(C)CCCN)c2ncccc2c1.O=P(O)(O)O (stereo not drawn),2.62
15,Clc1ccc(CSc2nnc(-c3cccnc3)o2)cc1,-14
16,Cn1c(SCn2nnc3ccccc3c2=O)nc2ccccc2c1=O,20.8
17,O=C(N/N=C/c1oc(O)c2ccccc12)c1ccccc1O,8.28
18,Cc1cc(C)c(S(=O)(=O)Nc2cccc3nsnc23)c(C)c1,-3.18
19,O=C(Nc1ccccc1Cc1ccccc1)c1ccccc1NS(=O)(=O)c1ccc(Cl)s1,9.34
20,O=C(CSc1nnc(CNC(=O)c2cccs2)o1)NC1CCCC1,0.995
21,COc1c(O)cc2oc(-c3ccc(O)cc3)cc(=O)c2c1O,-5.54
22,Cc1nn(-c2ccccc2)c(C)c1C(=O)OCC(=O)NC12CC3CC(CC(C3)C1)C2,4.48
